Reference: article PMC6919601, “Identification of Plasmodium dipeptidyl aminopeptidase allosteric inhibitors by high throughput screening” (PLoS ONE, 2019)
Screen size: about 110,000 compounds; about 230 (0.21%) showed an effect of 50% or more. This is one part of the list.

target: DPAP1 (Plasmodium falciparum, UniProt Q8IIJ9); experiment: primary screen, percent inhibition; read by cleavage of a fluorogenic dipeptide substrate; higher = more effect of the substance; design: species or system P. falciparum D10 trophozoite lysates; single well
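Note: 30 min substrate incubation versus DMSO and 10 µM JCP410 controls.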

Sequence of DPAP1 (Q8IIJ9 whole entry, looked up): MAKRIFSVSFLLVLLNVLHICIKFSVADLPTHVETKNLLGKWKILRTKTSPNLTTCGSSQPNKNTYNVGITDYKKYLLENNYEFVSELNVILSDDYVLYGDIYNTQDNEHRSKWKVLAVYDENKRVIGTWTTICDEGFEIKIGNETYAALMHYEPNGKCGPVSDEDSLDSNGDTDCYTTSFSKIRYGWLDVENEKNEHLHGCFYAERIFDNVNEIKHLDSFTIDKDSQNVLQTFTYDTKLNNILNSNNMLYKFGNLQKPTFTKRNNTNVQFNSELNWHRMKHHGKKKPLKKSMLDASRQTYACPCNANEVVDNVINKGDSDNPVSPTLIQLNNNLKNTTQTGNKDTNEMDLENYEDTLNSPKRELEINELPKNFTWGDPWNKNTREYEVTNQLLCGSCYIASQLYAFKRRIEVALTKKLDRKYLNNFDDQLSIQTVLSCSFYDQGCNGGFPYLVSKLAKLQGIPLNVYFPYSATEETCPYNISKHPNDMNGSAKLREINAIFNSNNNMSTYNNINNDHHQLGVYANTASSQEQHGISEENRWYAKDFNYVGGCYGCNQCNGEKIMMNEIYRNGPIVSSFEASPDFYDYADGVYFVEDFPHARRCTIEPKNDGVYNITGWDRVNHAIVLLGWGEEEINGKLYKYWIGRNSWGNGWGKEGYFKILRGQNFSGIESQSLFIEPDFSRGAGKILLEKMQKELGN

Compared with `CC(C)(C)C1(C)OC(=O)C(=Cc2ccc(C(=O)O)cc2)C(=O)O1` (stereo not shown), `CCOC(=O)C1=C(C)N(CCOC)C(=O)/C1=C\c1ccc(C)cc1` is lower in “% Inhibition @ 10 uM” value: 3.47% for the first, -1.04% for the second.

Compared with `CCc1ccc(N2C(=O)CC(N3CCC(C(N)=O)CC3)C2=O)cc1` (stereo not shown), `COc1ccc(CCN2C(=O)CC(N3CCN(C/C=C/c4ccccc4)CC3)C2=O)cc1OC` (stereo not shown) is lower in “% Inhibition @ 10 uM” value: 3.86% for the first, -3.33% for the second.

Going from `CCN1CCN(c2ccc(NC(=O)Cc3ccccc3)cc2)CC1` to `CCOc1ccc(NC(=O)CCc2ccccc2)cc1`, the “% Inhibition @ 10 uM” value falls from 2.84% to 0.431%.

Compared with `COc1ccc2ncc(S(=O)(=O)c3ccc(C)cc3)c(N3CCN(C)CC3)c2c1`, `CCCS(=O)(=O)c1nc(S(=O)(=O)c2ccc(C)cc2)c(NC(C)CC)s1` (stereo not shown) is higher in “% Inhibition @ 10 uM” value: -9.48% for the first, -5.89% for the second.

First: COc1cccc(NC(=O)c2cnccn2)c1
Second: CCc1ccc(-c2cc(C(F)(F)F)n3nc(C(=O)Nc4cccnc4)cc3n2)s1
The “% Inhibition @ 10 uM” value of the first is higher: -1.96% for the first, -3.92% for the second.

First: COc1ccccc1CNC(=O)c1ccc(F)cc1
Second: COc1ccc(NC(=O)c2sc3nc(-c4ccc(F)cc4)ccc3c2N)cc1OC
The “% Inhibition @ 10 uM” value of the first is higher: 2.26% for the first, 1.86% for the second.

Compared with `CC(C)N(Cc1nc(-c2ccc(Cl)cc2)no1)C(=O)/C=C/c1ccccc1`, `CN(Cc1ccccc1)C(=O)CCCOc1ccc(Cl)cc1Cl` is lower in “% Inhibition @ 10 uM” value: 4.41% for the first, 0.215% for the second.

Compared with `CCCC(C(=O)c1ccccc1)n1cncn1` (stereo not shown), `CCN(CC)c1ccc(NC(=O)COc2ccccc2)cc1` is lower in “% Inhibition @ 10 uM” value: 1.31% for the first, -3.29% for the second.

Going from `CCCOC(=O)c1sc2nc3c(cc2c1N)CN(C)CC3` to `CCCn1c2ccccc2c2cnn(CC(=O)Nc3nnc(CC)s3)c(=O)c21`, the “% Inhibition @ 10 uM” value rises from -1.08% to 6.35%.

Going from `C=CCN1C(=O)NC(=O)/C(=C/c2ccc(-c3ccc(C(=O)OCC)cc3)o2)C1=O` to `Cc1ccc(NC(=O)CN2C(=O)S/C(=C/c3ccc4c(c3)n(C)c(=O)n4C)C2=O)cc1Cl`, the “% Inhibition @ 10 uM” value rises from 1.58% to 12.4%.

Going from `O=C(C1=C(O)C(=O)N(c2cccnc2)C1c1ccccc1)c1ccccc1` (stereo not shown) to `COc1ccc(C(=O)C2=C(O)C(=O)N(c3ccccn3)C2c2ccc(C(C)C)cc2)cc1` (stereo not shown), the “% Inhibition @ 10 uM” value rises from 0.727% to 2.17%.

First: CC1=CC(C)(C)NC(=S)N1c1ccc(O)cc1
Second: CCOC(=O)CSc1nc(N)c(C#N)c(-c2ccc(O)cc2)c1C#N
The “% Inhibition @ 10 uM” value of the first is lower: -1.91% for the first, 2.55% for the second.

Compared with `O=C1c2ccccc2NC(c2ccc3c(c2)OCO3)N1Cc1ccco1` (stereo not shown), `O=C(CCCN1C(=O)c2cccc3cccc(c23)C1=O)N1CCN(Cc2ccc3c(c2)OCO3)CC1` is higher in “% Inhibition @ 10 uM” value: -2.89% for the first, -0.622% for the second.

First: O=C(C(Cc1ccccc1)N1C(=O)c2ccccc2C1=O)N1CCCCC1 (stereo not shown)
Second: CS(=O)(=O)CCC(C(=O)NCCc1c[nH]c2ccccc12)N1Cc2ccccc2C1=O (stereo not shown)
The “% Inhibition @ 10 uM” value of the first is lower: -1.96% for the first, 7.44% for the second.

Going from `CC(CCCC(C)(C)O)NC1CCCCCC1` (stereo not shown) to `OC1(CCC2(O)CCCC2)CCCC1`, the “% Inhibition @ 10 uM” value falls from -2.91% to -3.38%.

First: O=C(O)CCC(=O)Nc1ccccc1C(=O)Nc1ccccc1
Second: CC(=O)Nc1ccc(NC(=O)COc2ccccc2)cc1
The “% Inhibition @ 10 uM” value of the first is higher: 17.4% for the first, 8.19% for the second.

Going from `C#CCSCc1nc2ccccc2[nH]1` to `Cc1ccc2[nH]c(/C(C#N)=C\c3ccc[nH]3)nc2c1`, the “% Inhibition @ 10 uM” value falls from 2.73% to 0.685%.

First: O=S(=O)(Nc1ccc2c(c1)OCCO2)c1cccc(F)c1
Second: O=S(=O)(NC1CCC(NS(=O)(=O)c2ccc(F)cc2)CC1)c1ccc(F)cc1 (stereo not shown)
The “% Inhibition @ 10 uM” value of the first is lower: -10.1% for the first, -1.02% for the second.

Compared with `C=Cc1ccc(CSc2nncn3c2cc2oc(C)cc23)cc1`, `CCS(=O)(=O)C1=NSC2=NC(=O)/C(=C\c3ccc(OCc4ccc(F)cc4)cc3)C(=N)N21` is lower in “% Inhibition @ 10 uM” value: -0.553% for the first, -5.27% for the second.

Going from `CCN(CC)CCN(C)Cc1c(F)cccc1Cl` to `CCCCCCCN1C2=NCCN2c2ccccc21`, the “% Inhibition @ 10 uM” value falls from 0.273% to -6.65%.

First: O=C(CCc1nc(CN2CCN(C(=O)c3cc(-c4cccs4)on3)CC2)no1)N1CCOCC1
Second: O=C(NCCCN1CCOCC1)C(=O)NCC(c1cccnc1)N1CCOCC1 (stereo not shown)
The “% Inhibition @ 10 uM” value of the first is lower: -2.93% for the first, 1.68% for the second.

Compared with `COc1ccc2c(c1)OC13CCCCC1C2C(C(=O)c1ccccc1)C(=O)N3` (stereo not shown), `COc1ccc(CN2C(=O)CC(Cc3ccccc3)C2=O)cc1OC` (stereo not shown) is lower in “% Inhibition @ 10 uM” value: -4.01% for the first, -5.39% for the second.

First: O=C(O)c1sc2c(ccc3ccccc32)c1Br
Second: COCP(=O)(c1ccccc1)c1ccccc1
The “% Inhibition @ 10 uM” value of the first is lower: -6.68% for the first, -3.41% for the second.

Compared with `Cc1ccc(-c2nc(CS(=O)CC(=O)NC3CCCc4ccccc43)c(C)o2)cc1` (stereo not shown), `Cc1nc2c(-c3ccccc3)c(C)nn2c(C)c1CC(=O)NC(C)c1cccs1` (stereo not shown) is lower in “% Inhibition @ 10 uM” value: -1.05% for the first, -2.45% for the second.

First: COc1cccc(C2c3c(oc4ccccc4c3=O)C(=O)N2c2nccs2)c1OC (stereo not shown)
Second: COc1ccc(C(=O)ON2C(=O)c3cccc4cccc(c34)C2=O)cc1
The “% Inhibition @ 10 uM” value of the first is lower: -1.35% for the first, 0.778% for the second.

Going from `Cc1ccc(-c2csc(-c3cc4cc(Br)cc([N+](=O)[O-])c4oc3=O)n2)c(C)c1` to `O=c1oc(-c2ccccc2)nc2c1cnn2-c1ccccc1`, the “% Inhibition @ 10 uM” value rises from -7.99% to -1.96%.

Compared with `C=CCNCc1cccn1-c1ccccc1`, `O=C1NC(c2ccc(F)cc2)Nc2c1sc(=S)n2-c1ccccc1` (stereo not shown) is lower in “% Inhibition @ 10 uM” value: 2.6% for the first, -0.267% for the second.

Compared with `C=C1C2(C(=O)Nc3ncc(Cl)cc3Cl)CCC(C2)C1(C)C` (stereo not shown), `CC(=O)Nc1ccc(Nc2ncnc3c2cnn3Cc2ccc(Cl)cc2)cc1` is lower in “% Inhibition @ 10 uM” value: 1.43% for the first, -1.89% for the second.

First: COc1cc(C2=NOC(C(=O)N3C(C)CCCC3C)C2)cc(OC)c1OC (stereo not shown)
Second: COc1cc2c(cc1OC)C(Nc1ccc(Cl)cc1)=NC(C)(C)C2
The “% Inhibition @ 10 uM” value of the first is lower: -7.71% for the first, 2.67% for the second.

Compared with `CCc1cccc2c(C(=O)C(F)(F)F)cn(CC(N)=O)c12`, `Cc1sc(NC(=O)C(C)C)c(C(=O)Nc2ccccc2)c1C` is higher in “% Inhibition @ 10 uM” value: -1.1% for the first, 0.35% for the second.

First: Cc1cc(C)n(-c2nc3ccccc3n3c(N)nnc23)n1
Second: Cc1c2cnnc(O)c2c(C)n1Cc1ccccc1F
The “% Inhibition @ 10 uM” value of the first is higher: 1.49% for the first, -0.0309% for the second.

Compared with `CCCCOc1cccc(C(=O)Nc2ccc(CN3CCOCC3)cc2)c1`, `COc1cccc2c1Oc1ncccc1N(c1ccc(C(=O)NCCCOC(C)C)s1)C2` is higher in “% Inhibition @ 10 uM” value: -3.09% for the first, 1.44% for the second.
